Data reported in PubChem BioAssay AID1634 (National Center for Advancing Translational Sciences (NCATS), 2009).
The whole screen tested about 260,000 compounds, of which about 150 (0.058%) were called active. Inconclusive results, whose numbers are uncertain, are shown with a selection of clear calls. Calls come from the whole dose curve; as a rule, active = well fitted inhibition curve with a large enough effect; inconclusive = small, poorly fitted or top-dose-only effect; inactive = no such curve, though single readings can be large or run the other way. No potency is given beside an inconclusive call; the fits are too rough.

The compounds below were run against Pyruvate kinase PKM (Homo sapiens) (UniProt P14618) (assay: qHTS Assay for Inhibitors of Human Muscle isoform 2 Pyruvate Kinase). Settings: purified PKM2, ATP generation, Kinase-Glo luminescence; series mostly up to 57.5 µM; activity change, negative = inhibition: at the top concentration.
How it was run: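 Enzyme run at intermediate activity with final 0.1 mM ADP, 0.5 mM PEP (50 mM imidazole pH7.2, 50 mM KCl, 7 mM MgCl2), incubated 1 h at r.t. ATP formed read by Kinase-Glo luminescence, normalized to no-enzyme (full inhibition) and uninhibited wells.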
Note: nearly all actives have a fitted effect of over 60% in size.
Potency is the fitted concentration of half-maximal effect; tags give direction and shape of the fitted curve.
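Throughout, for activity change, negative = inhibition: plate controls were uninhibited enzyme wells for no effect and no-enzyme wells for full effect.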

Sequence of UniProt P14618 (P14618 whole entry, looked up, canonical isoform): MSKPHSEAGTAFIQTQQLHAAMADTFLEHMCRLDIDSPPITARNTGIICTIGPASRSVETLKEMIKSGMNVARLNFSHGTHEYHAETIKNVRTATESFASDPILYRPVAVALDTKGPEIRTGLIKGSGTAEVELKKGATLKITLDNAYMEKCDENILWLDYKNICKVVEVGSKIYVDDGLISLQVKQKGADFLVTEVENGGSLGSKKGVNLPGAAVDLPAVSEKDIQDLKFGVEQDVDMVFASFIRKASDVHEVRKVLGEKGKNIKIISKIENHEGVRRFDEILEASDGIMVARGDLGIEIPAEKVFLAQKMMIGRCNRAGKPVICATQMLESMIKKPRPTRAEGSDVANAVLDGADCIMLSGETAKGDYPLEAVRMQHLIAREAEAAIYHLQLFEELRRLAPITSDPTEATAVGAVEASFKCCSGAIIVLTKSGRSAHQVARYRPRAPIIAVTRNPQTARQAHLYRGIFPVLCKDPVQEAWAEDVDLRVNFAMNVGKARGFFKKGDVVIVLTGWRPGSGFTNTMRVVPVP

Question: With `C/C(=N/NC(=O)c1cccs1)c1c(C)[nH]n(-c2nc3ccccc3s2)c1=O` as the compound, how does the Potency read?
Answer: Its Potency is active: 14.1 µM.

Question: For `O=C(N/N=C\c1ccc2c(c1)OCO2)c1ccco1`, which Potency is on record?
Answer: The Potency was inconclusive [falling, partial curve].

Question: `N#Cc1ccc(NC(=O)Nc2ccc(Oc3ccc(NC(=O)Nc4ccc(C#N)cc4)cc3)cc2)cc1` was tested. Which Potency did it give?
Answer: The Potency was inconclusive [falling, single point].

Question: How did the activity change, negative = inhibition turn out when `C=CCOC(=O)C1=C(C)NC(=O)NC1c1cc(Cl)cc(Cl)c1OC` (stereo not given) was run?
Answer: The activity change, negative = inhibition was inactive: 48% [at 11.5 µM].

Question: How did the “activity change, negative = inhibition” value turn out when `O=C(CCc1ccccc1)Nc1ccc(S(=O)(=O)Nc2nccs2)cc1` was run?
Answer: Its value is inactive: 36.8%.

Question: For `CC(=O)Oc1ccc(C(=O)Nc2ccc3c(c2)OCCO3)cc1`, which Potency is on record?
Answer: The Potency was inconclusive [falling, partial curve].

Question: Which Potency does the source give for `Cc1ccsc1/C=N/N1CCOCC1` here?
Answer: The Potency was inconclusive [falling, single point].

Question: For `COc1ccc(N=c2ssnc2Cl)cc1`, which Potency is on record?
Answer: Its Potency is inconclusive [falling, single point].

Question: How did the Potency turn out when `CC1(C)CC(=O)C=C(Nc2ccccc2O)C1` was run?
Answer: Its Potency is inconclusive [falling, single point].

Question: Which Potency does the source give for `Cc1csc(NC(=O)C2CCCCN2S(=O)(=O)c2ccccc2)n1` (stereo not given) here?
Answer: The Potency was inconclusive [falling, single point].

Question: With `CCOC(=O)c1[nH]c2ccccc2c1N=CN(CC)CC` as the compound, how does the “activity change, negative = inhibition” value read?
Answer: Its value is inactive: -3.28%.

Question: Which Potency does the source give for `COc1ccc(/C=C/C(=O)c2c(O)cc(C)oc2=O)c(OC)c1` here?
Answer: The Potency was inconclusive [falling, partial curve].

Question: For `COc1ccc(Cl)cc1NC(=S)NCc1cccnc1`, which Potency is on record?
Answer: The Potency was inconclusive [falling, single point].

Question: `CCOC(=O)N1CCN(C(=O)COC(=O)c2cc(Cl)c(O)c(Cl)c2)CC1` was tested. Which Potency did it give?
Answer: Its Potency is inconclusive [falling, single point].

Question: Which Potency does the source give for `COc1ccc(C(=O)NC(=S)N2CCCc3ccccc32)cc1OC` here?
Answer: Its Potency is inconclusive [falling, full curve, poor fit].

Question: For `Cc1cc(=O)[nH]c(N/N=C/c2sccc2C)n1`, which Potency is on record?
Answer: The Potency was inconclusive [falling, partial curve].

Question: How did the “activity change, negative = inhibition” value turn out when `O=C(Cc1cccs1)N1CCN(S(=O)(=O)c2ccc(Br)cc2)CC1` was run?
Answer: Its value is inactive: 64.7%.

Question: Which Potency does the source give for `Cc1cc(C)n(CC(C)Nc2nc3nonc3nc2N2CCCCC2)n1` (stereo not given) here?
Answer: The Potency was inconclusive [falling, single point].

Question: For `Cn1nc(C(C)(C)C)c([N+](=O)[O-])c1C(=O)NC(C)(C)C`, which Potency is on record?
Answer: The Potency was inconclusive [falling, single point].

Question: For `O=C(CSCCOc1ccccc1)NCc1ccncc1`, which Potency is on record?
Answer: The Potency was inconclusive [falling, single point].

Question: With `Cn1nc(-c2ccc(C(=O)Nc3ccc(F)cc3)cc2)c2ccccc2c1=O` as the compound, how does the Potency read?
Answer: The Potency was inconclusive [falling, partial curve].

Question: With `S=C(Nc1cccnc1)Nc1ccccc1Br` as the compound, how does the Potency read?
Answer: The Potency was inconclusive [falling, single point].

Question: Which Potency does the source give for `COc1ccc(N=CC2=C(O)c3ccccc3C2=O)cc1` here?
Answer: Its Potency is inconclusive [falling, partial curve].

Question: Which “activity change, negative = inhibition” value does the source give for `CCn1c(CCc2ccccc2)nc2ccccc21` here?
Answer: The value was inactive: 30.9%.

Question: `Nc1cnn(Cc2ccccc2F)c1` was tested. Which “activity change, negative = inhibition” value did it give?
Answer: Its value is inactive: 31.2%.

Question: Which “activity change, negative = inhibition” value does the source give for `COc1ccc(C(CNC(=O)c2ccco2)N2CCCCC2)cc1` (stereo not given) here?
Answer: Its value is inactive: 72.6%.

Question: With `CCOc1ccc(NC(=O)c2nccnc2CO)cc1` as the compound, how does the Potency read?
Answer: Its Potency is inconclusive [falling, partial curve].

Question: `Cn1c(=O)[nH]c(Nc2ccccc2)c([N+](=O)[O-])c1=O` was tested. Which Potency did it give?
Answer: The Potency was inconclusive [falling, single point].

Question: With `NS(=O)(=O)c1cc2c(cc1Cl)NC(C1C[C@H]3C=C[C@@H]1C3)NS2(=O)=O` (stereo not given in full) as the compound, how does the “activity change, negative = inhibition” value read?
Answer: Its value is inactive: 43.2%.

Question: Which Potency does the source give for `Cc1occc1C(=O)N/N=C/c1cnn(C)c1C` here?
Answer: The Potency was inconclusive [falling, single point].

Question: With `Cc1[nH]n(-c2ccccc2)c(=S)c1C=Nc1cccc([N+](=O)[O-])c1` as the compound, how does the Potency read?
Answer: Its Potency is inconclusive [falling, single point].

Question: For `CCCC(=O)Nc1ccc(Cl)c(NC(=O)c2cccc(OC)c2)c1`, which “activity change, negative = inhibition” value is on record?
Answer: The value was inactive: 1.32%.

Question: `CCCN1CCC(NC(=S)Nc2cccc(Cl)c2Cl)CC1` was tested. Which Potency did it give?
Answer: The Potency was inconclusive [falling, single point].

Question: How did the Potency turn out when `O=C(Nc1ccccc1C(=O)N/N=C/c1ccc(O)cc1)c1ccccc1` was run?
Answer: Its Potency is inconclusive [falling, partial curve].

Question: Which “activity change, negative = inhibition” value does the source give for `COc1ccc(S(=O)(=O)NCc2c(-c3ccccc3)noc2C)c(OC)c1` here?
Answer: Its value is inactive: 77.7%.

Question: How did the Potency turn out when `COc1ccc(-c2cn3ccccc3n2)cc1OC` was run?
Answer: The Potency was active: 8.91 µM.

Question: `O=C(O)c1cc(NC(=O)c2cccc(C(=O)Nc3cc(C(=O)O)cc(C(=O)O)c3)c2)cc(C(=O)O)c1` was tested. Which Potency did it give?
Answer: The Potency was active: 12.6 µM.

Question: `Cc1ccc(/C=N/N(Cc2ccccc2)c2ccccc2)o1` was tested. Which “activity change, negative = inhibition” value did it give?
Answer: Its value is inactive: 64.3%.

Question: `O=S(=O)(c1cc(Cl)sc1Cl)N1CCCC1` was tested. Which Potency did it give?
Answer: Its Potency is inconclusive [falling, single point].

Question: With `O=C(Nc1nccs1)c1cc2c(s1)CCCCC2` as the compound, how does the Potency read?
Answer: Its Potency is inconclusive [falling, partial curve].

Question: `C=CCn1c(SCC#N)nc2sc(CC)cc2c1=O` was tested. Which Potency did it give?
Answer: Its Potency is inconclusive [falling, single point].

Question: With `Cc1ccc(-c2nc3ncccn3c2Nc2ccccc2C)o1` as the compound, how does the “activity change, negative = inhibition” value read?
Answer: Its value is inactive: 68.9%.

Question: With `O=C(O)/C=C/c1cccc(NC(=O)c2ccccc2)c1` as the compound, how does the Potency read?
Answer: Its Potency is inconclusive [falling, single point].

Question: With `Cc1cccc(OCc2nnc(SCC(=O)Nc3cccc(C(=O)N4CCOCC4)c3)n2C)c1` as the compound, how does the “activity change, negative = inhibition” value read?
Answer: The value was inactive: 33.7%.

Question: With `CCS(=O)(=O)N1CCC(C(=O)NCc2ccc(F)cc2Cl)CC1` as the compound, how does the “activity change, negative = inhibition” value read?
Answer: The value was inactive: 13.3%.

Question: With `Cc1noc(C)c1S(=O)(=O)N1CCC(C(=O)Nc2ccccn2)CC1` as the compound, how does the “activity change, negative = inhibition” value read?
Answer: Its value is inactive: 39.3%.

Question: For `COc1cccc(NC(=O)CSc2nnc3cc(C)nc(N)n23)c1`, which “activity change, negative = inhibition” value is on record?
Answer: The value was inactive: 135%.

Question: Which Potency does the source give for `CCC(=O)C1CCCN(C(=O)c2ccc(OC3CCN(C(=O)c4cccnc4)CC3)cc2)C1` (stereo not given) here?
Answer: Its Potency is inconclusive [falling, full curve, poor fit].

Question: How did the “activity change, negative = inhibition” value turn out when `CNC(=O)c1cc2ncc(C(F)(F)F)cc2s1` was run?
Answer: The value was inactive: 42.2%.

Question: For `O=C1CC(c2ccc(S(=O)(=O)NC3CC3)cc2)CN1` (stereo not given), which Potency is on record?
Answer: The Potency was inconclusive [falling, full curve, poor fit].
